# Experimental data: publication PMC7393505, “Functional 3D architecture in an intrinsically disordered E3 ligase domain facilitates ubiquitin transfer” (Nature Communications, 2020)
# T1: RING Finger Protein 4 (RNF4), full-length, wild type (C55S, C95S background) (Rattus norvegicus, UniProt O88846 1-194, C55S | C95S)
# T1 construct: Used unlabelled in the FP titration; also called RNF4 WT; source: E. coli BL21 (DE3), pLOU3 vector, purified (Ni-NTA, TEV cleavage)
# T1 sequence (looked up): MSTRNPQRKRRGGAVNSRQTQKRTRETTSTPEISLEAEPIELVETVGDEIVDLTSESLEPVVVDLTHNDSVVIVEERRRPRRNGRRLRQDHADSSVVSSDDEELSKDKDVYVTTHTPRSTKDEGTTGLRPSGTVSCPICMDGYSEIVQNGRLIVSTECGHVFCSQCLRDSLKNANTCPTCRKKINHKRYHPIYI
# B1: 4×SUMO2 linear fusion (C47A) with a single C-terminal cysteine labelled with Alexa488 (other)
# chain: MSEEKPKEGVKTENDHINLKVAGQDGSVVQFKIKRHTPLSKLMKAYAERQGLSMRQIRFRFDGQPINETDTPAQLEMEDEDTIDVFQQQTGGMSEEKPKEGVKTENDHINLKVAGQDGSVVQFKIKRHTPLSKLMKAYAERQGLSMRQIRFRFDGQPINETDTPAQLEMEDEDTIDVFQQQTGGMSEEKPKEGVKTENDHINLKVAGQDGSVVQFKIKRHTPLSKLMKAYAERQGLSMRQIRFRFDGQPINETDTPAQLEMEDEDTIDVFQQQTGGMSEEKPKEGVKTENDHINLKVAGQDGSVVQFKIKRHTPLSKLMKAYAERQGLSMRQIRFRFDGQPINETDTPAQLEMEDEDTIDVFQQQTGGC
# modifications: Alexa488 on the single cysteine at the C-terminus
# Biological target: T1, RING Finger Protein 4 (RNF4), …
# Assay: fluorescence polarisation; unlabelled RNF4 titrated against 1 µM 4×SUMO-Alexa488; 50 mM Tris, 150 mM NaCl, 0.5 mM TCEP, pH 7.5; room temperature, 10 min before measuring FP
# Details: both partners purified
binder,measurement,value
B1,Kd,1600 nM
